# Test results taken from PubChem BioAssay AID1468 (National Center for Advancing Translational Sciences (NCATS), 2008).
# The campaign covered roughly 280,000 compounds. About 1,100 (0.39%) were called active. This list was built around the results that the source calls inconclusive (neither active nor inactive); the mix of calls is not that of the screen. Calls come from the whole dose curve; as a rule, active = well fitted inhibition curve with a large enough effect; inconclusive = small, poorly fitted or top-dose-only effect, or effect the other way; inactive = flat fitted curve, though single readings scatter. Potencies of inconclusive entries are left out as doubtful fits.
# Biological target: Microtubule-associated protein tau (Homo sapiens) (UniProt P10636)
# Chain of UniProt P10636 (P10636 whole entry, looked up): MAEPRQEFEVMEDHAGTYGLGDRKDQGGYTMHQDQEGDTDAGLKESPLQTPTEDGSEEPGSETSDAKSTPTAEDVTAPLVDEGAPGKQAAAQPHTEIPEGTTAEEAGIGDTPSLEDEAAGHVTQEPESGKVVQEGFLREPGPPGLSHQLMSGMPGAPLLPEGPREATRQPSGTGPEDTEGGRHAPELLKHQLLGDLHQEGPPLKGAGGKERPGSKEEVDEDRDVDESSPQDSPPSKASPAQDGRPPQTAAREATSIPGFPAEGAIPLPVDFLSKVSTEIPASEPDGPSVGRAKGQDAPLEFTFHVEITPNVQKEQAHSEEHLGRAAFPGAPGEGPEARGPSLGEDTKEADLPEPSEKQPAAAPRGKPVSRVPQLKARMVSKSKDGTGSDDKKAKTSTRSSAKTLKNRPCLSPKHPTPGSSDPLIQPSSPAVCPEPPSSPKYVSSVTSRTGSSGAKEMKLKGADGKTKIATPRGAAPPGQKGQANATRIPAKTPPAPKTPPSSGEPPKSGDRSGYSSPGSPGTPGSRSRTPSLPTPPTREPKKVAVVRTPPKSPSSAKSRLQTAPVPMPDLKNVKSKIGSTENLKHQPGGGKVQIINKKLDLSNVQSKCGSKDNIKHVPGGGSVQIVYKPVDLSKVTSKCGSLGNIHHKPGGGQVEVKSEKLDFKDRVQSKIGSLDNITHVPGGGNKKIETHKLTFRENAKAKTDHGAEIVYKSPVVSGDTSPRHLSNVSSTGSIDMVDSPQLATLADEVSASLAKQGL
# Assay: qHTS for Inhibitors of Tau Fibril Formation, Fluorescence Polarization; note: nearly all actives have a fitted effect of over 55% in size
# Settings: K18 P301L tau heparin fibrillization, Alexa594 FP, 6 h; series mostly up to 57.7 µM
# Outline: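 Human K18 P301L fragment (15 uM unlabeled plus 0.24 uM Alexa 594-labeled) in 100 mM sodium acetate pH 7 with compound, aggregation induced by 20 uM heparin for 6 hr at 37 C. ThT (30 uM) added for 1 hr, then Alexa 594 FP read.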
# Potency is the fitted concentration of half-maximal effect; tags give direction and shape of the fitted curve.
row,SMILES,Potency
1,CC(=O)Nc1ccc(NC(=O)c2cc3sccc3n2Cc2ccc(Cl)cc2)cc1,"inconclusive [inhibitor, partial curve, poor fit]"
2,CCOc1ccccc1NC(=O)c1c(NCc2cccs2)sc2c1CCCCC2,inactive
3,Cc1ccc(N/C(N)=N/c2nc(C)cc(N3CCCCC3)n2)c(C)c1,inactive
4,O=C(CSc1nc2cccnc2n1Cc1ccccc1)NCc1ccco1,inactive
5,Nc1nc(Nc2ccccc2F)nc(NCc2ccco2)c1[N+](=O)[O-],"inconclusive [inhibitor, partial curve, poor fit]"
6,N#CCCn1c(SCC(=O)NCc2ccco2)nc2ccccc21,"inconclusive [inhibitor, single point]"
7,COc1ccc(S(=O)(=O)N2CCOCC2)cc1N=Nc1sc(N)nc1-c1ccccc1,"inconclusive [activator, partial curve, poor fit]"
8,Cc1cc(-c2nsc(=O)o2)c(S(C)(=O)=O)s1,"inconclusive [inhibitor, single point]"
9,Cc1cc(C(=O)Nc2cccc(F)c2)c2c(C)nn(-c3cccc(Cl)c3C)c2n1,inactive
10,Cc1ccc(OCC(=O)N/N=C\c2ccc(-c3cccc(C(=O)O)c3)o2)c(C)c1,inactive
11,COc1cc(O)c2c(=O)cc(-c3ccc(OC)c(-c4c(O)cc(O)c5c(=O)cc(-c6ccc(O)cc6)oc45)c3)oc2c1,"inconclusive [inhibitor, partial curve]"
12,O=C(Cn1c(=O)n(Cc2ccco2)c(=O)c2ccccc21)Nc1cccc(Cl)c1,"inconclusive [inhibitor, partial curve]"
13,CCCCC(O)(CCCC)C(=O)NN(C(=O)CCl)c1ccccc1,"inconclusive [activator, partial curve, poor fit]"
14,Cc1cc(O)c(-c2cc(C(=O)Nc3ccc(S(=O)(=O)N4CCOCC4)cc3)[nH]n2)cc1C,"inconclusive [inhibitor, full curve]"
15,CCN(CC)S(=O)(=O)c1ccc(NC(=S)NC(=O)CC(C)C)cc1,inactive
16,NC(=O)CSc1nc2scc(-c3ccc(Cl)cc3)c2c(=O)n1Cc1ccccc1,"inconclusive [inhibitor, single point]"
17,CN(C)c1ccc(C(=O)Nc2cccc(-c3nc4cccnc4s3)c2)cc1,"inconclusive [inhibitor, partial curve]"
18,CC1=NC(=O)C(N=Nc2cccc(O)c2)N1c1ccccc1 (configuration not stated),inactive
19,COc1ccccc1OCCCCn1c(-c2ccc(Cl)cc2)nc2ccccc2c1=O,inactive
20,COc1cc(C(=S)N2CCN(c3cccc(Cl)c3)CC2)ccc1O,"inconclusive [inhibitor, single point]"
21,COc1cc2c(cc1OC)C1C(=O)c3c(O)cc4c(c3OC1CO2)C=CC(C)(C)O4 (configuration not stated),inactive
22,CCOc1cccc(NC(=O)C2CC(=O)N(C)C(=Nc3ccc(F)cc3)S2)c1 (configuration not stated),"inconclusive [inhibitor, partial curve]"
23,CCN1C(=O)CC(C(=O)Nc2ccc(F)cc2)SC1=Nc1cccc(OC)c1 (configuration not stated),"inconclusive [inhibitor, partial curve]"

row,SMILES,Potency
1,COC(=O)CCC(=O)Nc1ccc(C)cc1OC(=O)CCC(=O)OC,"inconclusive [inhibitor, single point]"
2,CCOc1ccccc1NC(=O)CN1C(=O)COc2ccc(S(=O)(=O)N3CCCCC3)cc21,inactive
3,CC1(C)CC(=O)c2sc(NC(=O)CN3CCOCC3)nc2C1,inactive
4,O=C(Nc1ccccc1)C(Cc1ccccc1)NC(=O)C12CC3CC(CC(C3)C1)C2 (configuration not stated),"inconclusive [inhibitor, single point]"
5,CCCn1nc([N+](=O)[O-])c(C(C#N)c2nc3ccccc3s2)c(Cl)c1=O (configuration not stated),active: 17.8 µM
6,C=C(C)C(O)/C=C/c1ccc(Br)cc1 (configuration not stated),inactive
7,Cc1ncc(CO)c2cc(S(=O)(=O)c3ccc(F)cc3)c(=O)oc12,"inconclusive [inhibitor, single point]"
8,COc1cccc(-c2noc(-c3ccoc3C)n2)c1,"inconclusive [inhibitor, single point]"
9,Cc1cccc(Nc2nc(NCc3ccco3)nc(N)c2[N+](=O)[O-])c1,"inconclusive [inhibitor, full curve]"
10,CSc1ncc(C(=O)NCc2ccc(C)cc2)c(-c2ccccc2)n1,inactive
11,CC1CCCC2(C1)NC(=S)c1c(sc3c1CCCC3)N2 (configuration not stated),"inconclusive [inhibitor, partial curve]"
12,COc1ccccc1N1CCN(C(=O)Nc2cn(CC(C)C)c(=O)c3ccccc23)CC1,"inconclusive [inhibitor, single point]"
13,O=c1c2ccccc2c(C=Nc2cccc(S(=O)(=O)NC3=NCCCCC3)c2)c(O)n1Cc1ccccc1,"inconclusive [inhibitor, single point]"
14,CCCCN(C)CC(O)Cn1cc(/C=C/C(=O)c2ccc(C)cc2)c2ccccc21 (configuration not stated),inactive
15,N#Cc1c(-c2ccccc2)nc(SCC(=O)N2c3ccccc3Sc3ccccc32)[nH]c1=O,"inconclusive [inhibitor, single point]"
16,CS(=O)(=O)Nc1cccc(-c2nc(Nc3ccc(F)cc3)c3ccccc3n2)c1,"inconclusive [inhibitor, partial curve]"
17,COC(=O)c1ccc(C)c(NS(=O)(=O)c2ccc3c(c2)OCCO3)c1,inactive
18,CCOc1ccccc1-c1nc(-c2ccc(NC(=O)Cc3ccccc3OC)cc2)no1,"inconclusive [inhibitor, partial curve]"
19,O=C(O)C(Cc1ccccc1)N1C(=O)/C(=C/C=C/c2ccco2)SC1=S (configuration not stated),"inconclusive [inhibitor, partial curve]"
20,Cc1cccc2cc3c(N)c(C(=O)N4CCOCC4)sc3nc12,"inconclusive [inhibitor, single point]"
21,O=C(CSc1nc2c([nH]c3ccccc32)c(=O)n1-c1ccccc1)N1CCOCC1,inactive
22,CCN(c1ccc(F)cc1)S(=O)(=O)c1ccc2[nH]cc(C(=O)NCCCN3CCOCC3)c(=O)c2c1,"inconclusive [inhibitor, single point]"
23,CCCCCn1nc(C(=O)OCC(=O)c2c(N)n(C)c(=O)n(C)c2=O)c2ccccc2c1=O,"inconclusive [inhibitor, single point]"

row,SMILES,Potency
1,O=C(CN1C(=O)/C(=C/c2cccc(Br)c2)SC1=S)Nc1cccnc1,"inconclusive [inhibitor, single point]"
2,COc1ccc(NC(=O)Cn2c(=O)n(Cc3ccccc3Cl)c(=O)c3cc(OC)c(OC)cc32)cc1OC,"inconclusive [inhibitor, partial curve]"
3,CN(C)/C=C1/C=C(c2ccccc2)OC1=O,"inconclusive [inhibitor, single point]"
4,O=C1CC(c2cccc(O)c2)c2cc3c(cc2N1)OCO3 (configuration not stated),inactive
5,Cc1cccc(N=C2NC(=O)/C(=C/C=C/c3ccco3)S2)c1C,"inconclusive [inhibitor, partial curve]"
6,Cn1c(/C(C#N)=C(\O)c2ccc(S(=O)(=O)N3CCCCC3)cc2)nc2ccccc21,"inconclusive [inhibitor, single point]"
7,O=C(Cn1c(SCc2ccccc2F)nc2cccnc21)Nc1ccc(F)c(Cl)c1,"inconclusive [inhibitor, partial curve]"
8,CCc1cccc(NC(=O)Cn2ncc3c([nH]c4ccc(C)cc43)c2=O)c1,"inconclusive [inhibitor, partial curve]"
9,CC(=O)Nc1ccc(S(=O)(=O)N2CCN(c3cc(C)nc4ccccc34)CC2)cc1,inactive
10,Cc1c(/C=N\NC(=O)c2cc3ccccc3o2)c2ccccc2n1C,"inconclusive [activator, single point]"
11,CCOC(=O)CSc1nnc(-c2ccccc2)o1,inactive
12,O=C(Nc1ccc(F)cc1)Nc1ccc2snnc2c1,"inconclusive [inhibitor, partial curve]"
13,CCc1cccc(NC(=O)CN(c2ccc(C)cc2)S(=O)(=O)c2cccs2)c1,"inconclusive [inhibitor, partial curve]"
14,O=C(NCc1cccnc1)/C(=C\c1ccc(-c2ccc(Br)cc2)o1)S(=O)(=O)c1ccccc1,"inconclusive [activator, single point]"
15,Cc1ccc(C)c(NC(=S)N=Nc2c(O)n(C)c3ccc(S(=O)(=O)N4CCOCC4)cc23)c1,"inconclusive [activator, full curve, poor fit]"
16,Cn1cccc1/C=N/N1CCN(Cc2ccccc2Cl)CC1,inactive
17,CCN1CCC(C(=O)NC2CCCC2)(N(Cc2cccs2)C(=O)Cn2nnc3ccccc32)CC1,inactive
18,COc1ccc(-c2nc3ccccc3s2)cc1NC(=O)COc1cccc(C)c1,"inconclusive [inhibitor, partial curve]"
19,Cc1cc(C)c(S(=O)(=O)NCc2cn3c(C)csc3n2)cc1C,"inconclusive [inhibitor, single point]"
20,CCn1c(SC)nc(O)c(C(c2ccc(OC)c(O)c2)c2c(O)nc(SC)n(CC)c2=O)c1=O,"inconclusive [inhibitor, partial curve, poor fit]"
21,CN1C(=O)C(CC(=O)Nc2ccc(F)cc2)N(Cc2ccco2)C1=S (configuration not stated),"inconclusive [inhibitor, single point]"
